Test results published in the supplement of paper PMC10126150.
Sequences with one replicate were seen in a single cluster, so their values are uncertain.

System: ATP
Assay: switch fluorescence ratio, 500 uM ATP over buffer (Cy3 cluster intensity, sum of 5 cycles each) (fold (ratio)); higher = stronger signal-on switching upon ATP binding; sequences stand for … in TCGTCGGCAGCGTCAGATGTGTATAAGAGACAGTTTTTTTTTTTTTTTTTTTTTTTTT…TC
Settings: aptamer strand: ATP DNA aptamer (quencher-CACCTGGGGGAGTATTGCGGAGGAAGG + anchor), 100 nM annealed; ATP concentration: 500 uM; one replicate
Outline: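 Five buffer/ATP imaging cycles were run on Cy3-labelled switching-strand clusters on a modified Illumina MiSeq flow-cell, with NaOH stripping and re-annealing between cycles. In each cycle, clusters annealed to 100 nM quencher-labelled ATP aptamer were imaged in selection buffer, then after 15 min with 500 uM ATP at 22 °C. Per cluster, the fluorescence ratio is summed target-cycle over summed buffer-cycle Cy3 intensity, averaged per switch-domain sequence. Only clusters within 100-1000 RFU were kept.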
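Also: ATP exposure 15 min at 22 °C before imaging.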

Q: CTCATAATGC was tested. Which switch fluorescence ratio did it give?
A: 2.25

Q: Which switch fluorescence ratio does the source give for GCAGTTTTGT here?
A: 0.961

Q: How did the switch fluorescence ratio turn out when TTTAGTGTTC was run?
A: 0.997

Q: How did the switch fluorescence ratio turn out when AAATGTTGG was run?
A: 0.982

Q: Which switch fluorescence ratio does the source give for GAATAGTCGT here?
A: 0.995

Q: With AAAATCCTTC as the sequence, how does the switch fluorescence ratio read?
A: 1.37

Q: How did the switch fluorescence ratio turn out when AAAAATAAGG was run?
A: 0.986

Q: AGTATAGTTC was tested. Which switch fluorescence ratio did it give?
A: 1.01

Q: How did the switch fluorescence ratio turn out when AATGGTTGCG was run?
A: 0.997

Q: GAATCGGATT was tested. Which switch fluorescence ratio did it give?
A: 0.936

Q: With CTATAAAGAT as the sequence, how does the switch fluorescence ratio read?
A: 0.995

Q: For TCTAACTAAT, which switch fluorescence ratio is on record?
A: 1.38

Q: Which switch fluorescence ratio does the source give for GAGCAAGGAG here?
A: 1.24

Q: For TGTGCAGAAG, which switch fluorescence ratio is on record?
A: 0.963

Q: How did the switch fluorescence ratio turn out when ACAAGCAAAG was run?
A: 1.16

Q: For TCATCACTCG, which switch fluorescence ratio is on record?
A: 1.05

Q: For GCGGGCCCGT, which switch fluorescence ratio is on record?
A: 0.96

Q: Which switch fluorescence ratio does the source give for GGCATCATAG here?
A: 0.996

Q: GGTTACACCC was tested. Which switch fluorescence ratio did it give?
A: 1.09

Q: ATACGCTATG was tested. Which switch fluorescence ratio did it give?
A: 1.18

Q: With GGTATAGGTT as the sequence, how does the switch fluorescence ratio read?
A: 1.01

Q: For ATGTGAGGCA, which switch fluorescence ratio is on record?
A: 0.975

Q: AGCCAGCCAA was tested. Which switch fluorescence ratio did it give?
A: 1.06

Q: Which switch fluorescence ratio does the source give for TGCTAACATC here?
A: 1.05

Q: How did the switch fluorescence ratio turn out when ATAAGTTACA was run?
A: 1.13

Q: For TCAATTCGTG, which switch fluorescence ratio is on record?
A: 0.988

Q: Which switch fluorescence ratio does the source give for ATGGCTAGTG here?
A: 0.943

Q: How did the switch fluorescence ratio turn out when TGCATAATGG was run?
A: 1.01

Q: Which switch fluorescence ratio does the source give for ATTCTGTTCG here?
A: 1

Q: With CTTGTCACGA as the sequence, how does the switch fluorescence ratio read?
A: 1.02

Q: For AGATCAGACG, which switch fluorescence ratio is on record?
A: 0.97

Q: AAAATTATTA was tested. Which switch fluorescence ratio did it give?
A: 1.03

Q: For AGCAGGGAGA, which switch fluorescence ratio is on record?
A: 1.02

Q: Which switch fluorescence ratio does the source give for CACGTCTTGT here?
A: 0.974

Q: Which switch fluorescence ratio does the source give for AGAGCTTGTT here?
A: 1

Q: CAGTCTGCAC was tested. Which switch fluorescence ratio did it give?
A: 1.23

Q: How did the switch fluorescence ratio turn out when AAAGAAGCTG was run?
A: 1.04

Q: How did the switch fluorescence ratio turn out when AAACCGTGGG was run?
A: 0.984

Q: With TTCGCGGTCC as the sequence, how does the switch fluorescence ratio read?
A: 1.18

Q: GGGGCCGTAG was tested. Which switch fluorescence ratio did it give?
A: 0.985

Q: How did the switch fluorescence ratio turn out when GGGCACGCTT was run?
A: 1.15

Q: How did the switch fluorescence ratio turn out when AAGAGGTTT was run?
A: 0.973

Q: Which switch fluorescence ratio does the source give for TTGGTCCTTA here?
A: 1.03

Q: With CTGAACGGGT as the sequence, how does the switch fluorescence ratio read?
A: 1.01

Q: For GCATGTAGGA, which switch fluorescence ratio is on record?
A: 0.999

Q: TTTGACTATA was tested. Which switch fluorescence ratio did it give?
A: 1.07

Q: With AGGGATCATT as the sequence, how does the switch fluorescence ratio read?
A: 0.946

Q: AAATTTGATA was tested. Which switch fluorescence ratio did it give?
A: 1.03

Q: For AAAAAATGGT, which switch fluorescence ratio is on record?
A: 0.971

Q: With TTAGGTGGGA as the sequence, how does the switch fluorescence ratio read?
A: 0.945

Q: With TGGTTTCTAT as the sequence, how does the switch fluorescence ratio read?
A: 1.01

Q: TATCCTCATT was tested. Which switch fluorescence ratio did it give?
A: 0.989

Q: How did the switch fluorescence ratio turn out when TGGGCAGCT was run?
A: 0.985

Q: With GCGACGGTAG as the sequence, how does the switch fluorescence ratio read?
A: 1.02

Q: How did the switch fluorescence ratio turn out when ACGACTTGCC was run?
A: 1.12

Q: How did the switch fluorescence ratio turn out when AGGTAGAAGG was run?
A: 0.993

Q: How did the switch fluorescence ratio turn out when CCTAGTGGTG was run?
A: 1.15

Q: GCAAGTGACA was tested. Which switch fluorescence ratio did it give?
A: 1.06

Q: With CCTATACACG as the sequence, how does the switch fluorescence ratio read?
A: 1.05

Q: With TATATCAAAT as the sequence, how does the switch fluorescence ratio read?
A: 0.972

Q: How did the switch fluorescence ratio turn out when ACTCTACCTA was run?
A: 1.26

Q: For GATTCCCCCT, which switch fluorescence ratio is on record?
A: 1.1

Q: TGTGGTCATG was tested. Which switch fluorescence ratio did it give?
A: 1.01

Q: With AGACCCACGC as the sequence, how does the switch fluorescence ratio read?
A: 1.47

Q: Which switch fluorescence ratio does the source give for TACTTGGAA here?
A: 0.968

Q: How did the switch fluorescence ratio turn out when TACGAATAAG was run?
A: 1.03

Q: Which switch fluorescence ratio does the source give for AATGGCGTAC here?
A: 1.05

Q: With TATTAGCTAG as the sequence, how does the switch fluorescence ratio read?
A: 1

Q: How did the switch fluorescence ratio turn out when TTGCGATCG was run?
A: 1.01

Q: Which switch fluorescence ratio does the source give for GCAGCAACC here?
A: 3.36

Q: GAGATTCGGT was tested. Which switch fluorescence ratio did it give?
A: 1.01

Q: AAGCCGAAAG was tested. Which switch fluorescence ratio did it give?
A: 1.01

Q: CTCGAATTG was tested. Which switch fluorescence ratio did it give?
A: 0.934

Q: CACCGTCCTC was tested. Which switch fluorescence ratio did it give?
A: 1.83

Q: AATCGCTAA was tested. Which switch fluorescence ratio did it give?
A: 1.09

Q: For GTGACACATG, which switch fluorescence ratio is on record?
A: 0.959

Q: Which switch fluorescence ratio does the source give for GCGAGCTTTG here?
A: 0.969

Q: Which switch fluorescence ratio does the source give for GTAAGCCTAG here?
A: 1.02

Q: TTTGTATGTA was tested. Which switch fluorescence ratio did it give?
A: 0.982

Q: For TGCTAAACAT, which switch fluorescence ratio is on record?
A: 1.05

Q: GGTGTGAAAG was tested. Which switch fluorescence ratio did it give?
A: 0.966

Q: Which switch fluorescence ratio does the source give for TGGTGTCCTG here?
A: 0.978

Q: With ACCCACCTG as the sequence, how does the switch fluorescence ratio read?
A: 1.25

Q: AGGCGGAATA was tested. Which switch fluorescence ratio did it give?
A: 1.1

Q: CGGTCGCTGT was tested. Which switch fluorescence ratio did it give?
A: 1.08
